This passage reports Potency results from PubChem BioAssay AID360 (National Center for Advancing Translational Sciences (NCATS), 2006).

Molecules are shown by their SMILES. About 550 (1.1%) of roughly 48,000 compounds were called active. About 4% were inconclusive and are not listed. Rule as the data show it: active = potency below about 15 µM; inconclusive = mostly about 16 µM to 33 µM; inactive = weaker than that. The list shows a part of the results.
Potency is read from the fitted curve at half-maximal effect.

Sequence of UniProt P04062 (P04062 whole entry, looked up): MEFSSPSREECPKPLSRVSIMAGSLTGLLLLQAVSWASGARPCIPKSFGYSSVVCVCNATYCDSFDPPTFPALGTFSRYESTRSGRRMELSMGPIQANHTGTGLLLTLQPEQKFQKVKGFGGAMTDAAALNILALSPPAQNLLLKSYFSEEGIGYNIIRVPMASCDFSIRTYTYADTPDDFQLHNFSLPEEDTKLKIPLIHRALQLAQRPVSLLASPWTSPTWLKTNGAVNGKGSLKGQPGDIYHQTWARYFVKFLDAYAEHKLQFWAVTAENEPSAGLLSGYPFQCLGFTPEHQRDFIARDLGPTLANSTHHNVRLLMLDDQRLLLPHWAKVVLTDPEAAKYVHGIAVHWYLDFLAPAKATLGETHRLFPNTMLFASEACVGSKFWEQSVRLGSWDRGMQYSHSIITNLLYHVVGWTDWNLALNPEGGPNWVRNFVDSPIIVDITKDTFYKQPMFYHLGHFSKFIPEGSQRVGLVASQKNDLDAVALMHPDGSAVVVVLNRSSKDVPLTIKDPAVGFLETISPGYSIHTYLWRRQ

The target of this test is Lysosomal acid glucosylceramidase (Homo sapiens) (UniProt P04062). The test can be described thus: Glucocerebrosidase.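 Also: the screen sought inhibitors.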 Particulars: purified enzyme, resorufin glucoside fluorescence (screen aimed at inhibitors), 20 min; series mostly up to 77 µM. The method, boiled down:
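Normal human glucocerebrosidase (0.2 nM final) was assayed with resorufin β-D-glucopyranoside (30 uM final) in 50mM citric acid/KH2PO4, 10mM sodium taurocholate, 0.01% tween-20, pH 5.9. Compounds were titrated; fluorescence (Ex 548, Em 600) read after 20 min at RT.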
On to `CCC1CCCCN1S(=O)(=O)c1ccc(NC(=O)CSc2ncccc2C(=O)O)cc1` (stereo unspecified), for which the Potency is inactive: > 76.9 µM.

As to `COCCN1Cc2cccc(C(=O)NCc3ccccc3OC)c2C1=O`, the Potency was inactive: > 76.9 µM.

As for `O=C(OCC#CCSc1nc2ccccc2s1)c1ccco1`, the Potency was inactive: > 76.9 µM.

Take `CCP(=O)(CC)c1cccc(N)c1`: the Potency was inactive: > 76.9 µM.

Regarding `O=C1C2C3C=CC(C3)C2C(=O)N1CCCO` (stereo unspecified), the Potency was inactive: > 76.9 µM.

`CCc1oc2ccccc2c1C(=O)CCN1CCCCC1`: the Potency was inactive: > 76.9 µM.

For the compound `CC1Cc2nc(SCC(=O)Nc3ccc4c(c3)OCCO4)n(C)c(=O)c2S1` (stereo unspecified), the Potency is inactive: > 76.9 µM.

As to `Cc1ccc(NC2=CC(=O)CC(C)(C)C2)c(N)c1`, the Potency is inactive: > 76.9 µM.

`CC1=C(C(=O)Nc2ccccc2)C(c2ccc3c(c2)OCO3)C2=C(CCCC2=O)N1` (stereo unspecified): the Potency was inactive: > 76.9 µM.

`COc1ccccc1C1/C(=C(/O)c2ccccc2)C(=O)C(=O)N1CCO` (stereo unspecified): the Potency is inactive: > 76.9 µM.

With `NC(=S)c1ccc(C(N)=S)o1`, the Potency is inactive: > 76.9 µM.

For the compound `CC(Oc1ccc(Cl)cc1Cl)C(=O)NC1CCSC1=O` (stereo unspecified), the Potency is inactive: > 76.9 µM.

Regarding `CC1Oc2ccccc2N(CC(=O)Nc2ccc3c(c2)OCO3)C1=O` (stereo unspecified), the Potency is inactive: > 76.9 µM.

Consider `CCCc1nnc(NC(=O)CCC(=O)N2CCCCC2CC)s1` (stereo unspecified), for which the Potency is inactive: > 76.9 µM.

As to `Cc1ccc(-c2noc(C3CCCN(C(=O)C4CCCCC4)C3)n2)o1` (stereo unspecified), the Potency is inactive: > 76.9 µM.

Turning to `CCN=C1SC(C(=O)Nc2cccc(OCC)c2)CC(=O)N1CC` (stereo unspecified), the Potency is inactive: > 76.9 µM.

As for `CC1CCN(C(=O)CSc2nnc(CN3CCOCC3)n2-c2ccccc2)CC1`, the Potency was inactive: > 76.9 µM.

In the case of `CCCN(CCC)c1ncnc2c1cnn2-c1ccc(OC)cc1`, the Potency is inactive: > 76.9 µM.

`CCC(C)NC(=O)C1CCC(=O)N1Cc1ccc(C)cc1` (stereo unspecified): the Potency was inactive: > 76.9 µM.

As to `CCC(CO)NC(=O)c1cccc(S(=O)(=O)N2c3ccccc3CC2C)c1` (stereo unspecified), the Potency is inactive: > 76.9 µM.

For `O=C(CCN1C(=O)c2ccccc2C1=O)Nc1ccc(S(=O)(=O)NC2=NCCCCC2)cc1`, the Potency was inactive: > 76.9 µM.

Turning to `CCN(CC)C(=O)CN(C)S(=O)(=O)c1cccc2nsnc12`, the Potency was inactive: > 76.9 µM.

On to `Cc1cc(C)cc(C(=O)N2CCC(C(N)=O)CC2)c1`, for which the Potency is inactive: > 76.9 µM.

For the compound `COc1cc(CN2CCN(S(=O)(=O)c3ccc(F)cc3)CC2)cc(OC)c1OC`, the Potency is inactive: > 76.9 µM.

`CCOC(=O)CSc1nnc(CNC(=O)c2ccco2)n1C`: the Potency is inactive: > 76.9 µM.

Regarding `O=C(Nc1cc(C(F)(F)F)ccc1N1CCOCC1)c1c(F)c(F)c(F)c(F)c1F`, the Potency was inactive: > 76.9 µM.

`CCCCOc1ccc(/C=c2\sc3ncnn3c2=O)cc1`: the Potency is inactive: > 76.9 µM.

As to `O=C(CN1CCCC1=O)NC1(C(F)(F)F)NC(=O)N(Cc2ccccc2)C1=O` (stereo unspecified), the Potency was inactive: > 76.9 µM.

As to `Cc1noc(C)c1CN1C(=O)NC2(CCc3ccccc3C2)C1=O` (stereo unspecified), the Potency is inactive: > 76.9 µM.

Turning to `Cc1csc(SCC(=O)Nc2ccc(Cl)cn2)n1`, the Potency is inactive: > 76.9 µM.

On to `CCCCn1nnnc1SCC(=O)Nc1ccc2c(c1)OCCO2`, for which the Potency was inactive: > 76.9 µM.

Consider `Cc1ccc2nc(SCC(=O)NC(=O)NCc3ccco3)[nH]c2c1`, for which the Potency is inactive: > 76.9 µM.

Consider `O=C(Nc1ncc2c(n1)CC(c1ccccc1)CC2=O)c1ccco1` (stereo unspecified), for which the Potency was inactive: > 76.9 µM.

`COc1ccc(OC)c(C(=O)CSc2nc3c(c(=O)n(C)c(=O)n3C)n2C(C)C)c1`: the Potency was inactive: > 76.9 µM.

`C=CCn1c(N)c(-c2nc3ccccc3n2C)sc1=S`: the Potency was inactive: > 76.9 µM.

`Cc1cc(C(=O)OCn2nnc3ccccc3c2=O)c(C)o1`: the Potency is inactive: > 76.9 µM.

As to `COc1ccc(-n2c(C)nnc2SCC(=O)N2C(C)CCCC2C)cc1` (stereo unspecified), the Potency was inactive: > 76.9 µM.

`CCCCn1c(NC(=O)CC)c(C#N)c2nc3ccccc3nc21`: the Potency is inactive: > 76.9 µM.

On to `Cc1ccc2cc3c(N)c(C(=O)N4CCOCC4)sc3nc2c1`, for which the Potency was inactive: > 76.9 µM.

For the compound `Cc1cc(N2CCN(c3nnnn3-c3ccccc3)CC2)n2ncnc2n1`, the Potency was inactive: > 76.9 µM.

`COc1ccc2[nH]c3c(=O)n(CCCCC(=O)N4CCCC4)c(=S)[nH]c3c2c1`: the Potency was inactive: > 76.9 µM.

As to `COc1ccc(N2CCN(CC(=O)Nc3nnc(-c4ccccc4)s3)CC2)cc1`, the Potency was inactive: > 76.9 µM.

Regarding `Cc1noc(C)c1COc1ccc(C(=O)OCc2nnc(-c3ccc(Cl)cc3)o2)cc1`, the Potency was inactive: > 76.9 µM.

For the compound `Cc1nnc2sc(-c3ccco3)nn12`, the Potency was inactive: > 76.9 µM.

Take `CCc1cc2c(=O)n(Cc3ccco3)c(SCC(=O)N3CCCc4ccccc43)nc2s1`: the Potency was inactive: > 76.9 µM.

Take `COc1cccc(-c2csc3nnc(SCC(=O)c4ccc(NC(C)=O)cc4)n23)c1`: the Potency was inactive: > 76.9 µM.

Turning to `Cc1oc(-c2ccc(Cl)cc2)nc1CN1CCCC(C(=O)NCc2ccco2)C1` (stereo unspecified), the Potency result was “inactive”.

On to `COc1ccc(S(=O)(=O)N(CC(=O)NCc2ccco2)C2CCCCC2)cc1OC`, for which the Potency is inactive: > 76.9 µM.

As to `CCOc1ccc(NC(=O)c2cccc(-n3cnnn3)c2)cc1`, the Potency was inactive: > 76.9 µM.

In the case of `CC(C)=CC(=O)Nc1nnc(-c2cccnc2)s1`, the Potency was inactive: > 76.9 µM.

`Cc1cccc(OCC(O)Cn2c(NCc3cccnc3)nc3c2c(=O)[nH]c(=O)n3C)c1` (stereo unspecified): the Potency was inactive: > 76.9 µM.

As to `CC(=O)N(C)c1ccc(NC(=O)c2ccco2)cc1`, the Potency was inactive: > 76.9 µM.

On to `CCOc1ncccc1C(=O)Nc1cccc(C(=O)Nc2cccc(S(=O)(=O)CCO)c2)c1`, for which the Potency is inactive: > 76.9 µM.

For `CCOC(=O)N1CCN(C(=O)C(CC)n2nc(C)c3sc4ccccc4c3c2=O)CC1` (stereo unspecified), the Potency was inactive: > 76.9 µM.

In the case of `Cc1ccc(-c2cc(C(F)F)nc(NCC3CCCO3)n2)cc1` (stereo unspecified), the Potency was inactive: > 76.9 µM.

With `Cn1c(Cn2nnc3ccccc32)nnc1SCC(=O)N1CCc2ccccc21`, the Potency was inactive: > 76.9 µM.

Regarding `CCCc1[nH]nc2c1C(c1cccc(OC(=O)c3ccco3)c1)C(C#N)=C(N)O2` (stereo unspecified), the Potency was inactive: > 76.9 µM.

In the case of `N#CCCn1c(SCC(=O)c2c[nH]c3ccccc23)nc2ccccc21`, the Potency entry is “inactive”.

Consider `CCOC(=O)C1CCN(C(c2cc3c(C)ccc(C)c3[nH]c2=O)c2nnnn2C2CCCCC2)CC1` (stereo unspecified), for which the Potency was inactive: > 76.9 µM.

On to `COC(=O)[C@@H](NC(=O)NCc1ccccc1Cl)C(C)C`, for which the Potency is inactive: > 76.9 µM.

As for `N#CC1=C(N)Oc2n[nH]c(-c3ccc(F)cc3)c2C1c1ccncc1` (stereo unspecified), the Potency is inactive: > 76.9 µM.

In the case of `COCCn1c(-c2ccc(OC)cc2)cnc1N`, the Potency entry is “inactive”.

Take `Cc1noc(C)c1COC(=O)CCc1ccc(S(=O)(=O)N2CCCCC2)cc1`: the Potency was inactive: > 76.9 µM.

Take `Cc1ccc(-n2nnnc2SC(C)C(N)=O)c(C)c1` (stereo unspecified): the Potency was inactive: > 76.9 µM.

As for `CN(C)S(=O)(=O)c1ccc(N2CCOCC2)nc1`, the Potency was inactive: > 76.9 µM.

For the compound `CCCCCc1nnc(NC(=O)Cc2cccs2)s1`, the Potency is inactive: > 76.9 µM.

Consider `Cc1cc(C(=O)Nc2sc3c(c2C#N)CCCC3)no1`, for which the Potency is inactive: > 76.9 µM.

In the case of `O=C(Nc1cccnc1)c1cn(-c2ccccc2)nc1-c1cccs1`, the Potency is inactive: > 76.9 µM.

For `O=C1CC(N2CCN(c3ccc(S(=O)(=O)N4CCOCC4)cc3)CC2)C(=O)N1Cc1ccccc1` (stereo unspecified), the Potency is inactive: > 76.9 µM.

Turning to `NS(=O)(=O)c1ccc(Nc2nc(-c3ccc(O)cc3)cs2)cc1`, the Potency is inactive: > 76.9 µM.

For `Cn1ncc(C#N)c1/N=C/N(Cc1ccccc1)Cc1ccccc1`, the Potency is inactive: > 76.9 µM.

As for `Cc1ccc(C)c(N2CCN(C(=O)c3ccccc3Br)CC2)c1`, the Potency was inactive: > 76.9 µM.

As to `Cc1ccc(C(N)=O)cc1S(=O)(=O)Nc1cccc(C)c1C`, the Potency is inactive: > 76.9 µM.

As for `Cc1ccc(-n2[nH]c(C)c(C=Nc3ccc(C)cn3)c2=O)cc1`, the Potency was inactive: > 76.9 µM.

With `CCCCNc1nc2ccccc2n1CC(=O)N1CCc2ccccc2C1`, the Potency was inactive: > 76.9 µM.

`C=CCNC(=O)CCCC(=O)NCC=C`: the Potency was inactive: > 76.9 µM.

On to `CCCCCc1nnc(NC(=O)C2CCCO2)s1` (stereo unspecified), for which the Potency is inactive: > 76.9 µM.

For `Cc1cccc(CNC(=O)c2ccccc2N)c1`, the Potency was inactive: > 76.9 µM.

In the case of `COc1ccc(OC)c(NC(=O)Cc2coc3ccc(C)cc23)c1`, the Potency is inactive: > 76.9 µM.

In the case of `O=C(Cn1c(=O)n(Cc2ccco2)c(=O)c2cc(Cl)ccc21)NCC1CCCO1` (stereo unspecified), the Potency is inactive: > 76.9 µM.

As for `CCCNC(=O)Cn1cnc2sc(C(=O)NCCN(CC)CC)c(C)c2c1=O`, the Potency was inactive: > 76.9 µM.

Regarding `COc1ccc(OC)c(S(=O)(=O)Nc2cnc3ccccc3c2)c1`, the Potency is inactive: > 76.9 µM.

On to `CCCC(CCC)n1[nH]c(=O)c2c(C)cc(C)nc21`, for which the Potency is inactive: > 76.9 µM.

Take `CC1CCN(c2nc3ccccc3nc2C(C#N)C(=O)NC2CCCCC2)CC1` (stereo unspecified): the Potency was inactive: > 76.9 µM.

For the compound `C=CCn1c(SCC(=O)/C(C#N)=C(\C)N)nc2sc(CC)cc2c1=O`, the Potency is inactive: > 76.9 µM.

Regarding `COc1ccc2c(c1)CCc1c(C(=O)NCc3ccco3)noc1-2`, the Potency was inactive: > 76.9 µM.

Turning to `O=C(COc1ccc2ccccc2c1Br)Nn1cnnc1`, the Potency is inactive: > 76.9 µM.

Turning to `COCCNC(=O)C(c1ccc(C)o1)N(C(=O)c1snc(C(N)=O)c1N)c1cccc(C)c1` (stereo unspecified), the Potency is inactive: > 76.9 µM.

In the case of `CCOC(=O)N1CCN(C(=O)CNC(=O)Cc2ccc(Cl)cc2)CC1`, the Potency was inactive: > 76.9 µM.

As for `CCc1nc2c(cnn2-c2ccc(Cl)cc2)c(=O)n1-c1ccc(OC)cc1`, the Potency was inactive: > 76.9 µM.

In the case of `Cc1cccc(-c2c3c(=O)n(C)c(=O)n(C)c3c3cccnn23)c1`, the Potency was inactive: > 76.9 µM.
